Assay results published in the antibiotic and cytotoxicity screens of Wong et al. (2023).
The other results are listed elsewhere or left out.

Tests used:
HSkMC = human skeletal muscle cells; assay: cytotoxicity call (relative viability < 0.9); conditions: 10 µM
S. aureus RN4220 = assay: growth inhibition call (relative growth <= 0.2); conditions: 50 µM

Compound | cytotoxicity call (HSkMC) | growth inhibition call (S. aureus RN4220)
CN1CCC(=C2c3ccccc3CC(=O)c3sccc32)CC1.O=C(O)C=CC(=O)O | inactive | inactive
Cc1noc(C)c1S(=O)(=O)Nc1cccc2c1O[C@H](CN(C)S(=O)(=O)c1ccc(Cl)cc1)[C@H](C)CN([C@H](C)CO)C2=O | inactive | inactive
O=C(C[C@H]1CC[C@H]2[C@@H](COC[C@@H](O)CN2C(=O)c2cccnc2)O1)NCC1CC1 | inactive | inactive
CC(=O)O.N=C(N)NN=Cc1c(Cl)cccc1Cl | inactive | inactive
COc1ccc(CCNC(=O)[C@@]2(Sc3ccc(C)cc3)CC(=O)N(Cc3ccccc3C(F)(F)F)[C@@H]2c2ccc(CO)cc2)cc1 | inactive | inactive
C[C@@H]1CN([C@H](C)CO)C(=O)c2cc(NS(=O)(=O)c3ccccc3)ccc2O[C@@H](C)CCCCO[C@H]1CN(C)C(=O)C1CCCCC1 | inactive | inactive
C=C(C(=O)O)[C@@H](CCCCCCOC(=O)C(=O)OCCCCCC[C@@H](C(=C)C(=O)O)C(=O)O)C(=O)O | inactive | inactive
C[C@H](CO)N1C[C@H](C)[C@H](CN(C)S(C)(=O)=O)Oc2ccc(NC(=O)CCCCCC(=O)Nc3ccccc3N)cc2CC1=O | inactive | inactive
COc1ccc(CNC(=O)C[C@H]2C[C@H]3c4cc(NC(=O)NC5CCCC5)ccc4O[C@H]3[C@H](CO)O2)cc1 | inactive | inactive
Cc1noc(C)c1NC(=O)Nc1ccc2c(c1)C(=O)N([C@H](C)CO)C[C@H](C)[C@@H](CN(C)Cc1ccc(Cl)c(Cl)c1)OCCCC[C@H](C)O2 | inactive | inactive
C[C@@H]1CN([C@@H](C)CO)C(=O)c2cccc(NS(C)(=O)=O)c2O[C@H]1CN(C)C(=O)Nc1ccccc1 | inactive | inactive
COc1ccc(S(=O)(=O)Nc2ccc3c(c2)C(=O)N([C@H](C)CO)C[C@@H](C)[C@H](CN(C)Cc2ccccc2)OCCCC[C@H](C)O3)cc1 | inactive | inactive
C[C@H](CO)N1C[C@H](C)[C@H](CN(C)Cc2ccc(C(=O)Nc3ccccc3N)cc2)Oc2ccc(NS(=O)(=O)c3cn(C)cn3)cc2C1=O | inactive | inactive
CN1C(=O)c2cc(NC(=O)c3ccc(F)c(F)c3)ccc2OC[C@H]2O[C@@H](CC(=O)N3CCOCC3)CC[C@@H]21 | inactive | inactive
COc1ccc(NC(=O)Nc2ccc3c(c2)C(=O)N([C@H](C)CO)C[C@@H](C)[C@@H](CN(C)Cc2ccccc2)OCCCC[C@H](C)O3)cc1 | inactive | inactive
C=CCC[C@H](Cc1ccc(F)cc1)C(=O)OC[C@H](Cc1c[nH]c2ccccc12)NC(=O)[C@H](CC=C)CC(=O)N[C@@H](CO)Cc1ccccc1 | inactive | inactive
COc1cccc(S(=O)(=O)Nc2ccc3c(c2)[C@@H]2C[C@@H](CC(=O)NCC(F)(F)F)O[C@@H](CO)[C@@H]2O3)c1 | inactive | inactive
C[C@@H]1CCCCO[C@H](CN(C)C(=O)Nc2ccccc2)[C@H](C)CN([C@@H](C)CO)C(=O)c2cc(NS(=O)(=O)c3cccs3)ccc2O1 | inactive | inactive

Compound | cytotoxicity call (HSkMC) | growth inhibition call (S. aureus RN4220)
COc1ccccc1CNC(=O)C[C@H]1C[C@H]2c3cc(NC(=O)c4ccc5c(c4)OCO5)ccc3O[C@H]2[C@@H](CO)O1 | inactive | inactive
COc1ccc(CN(C)C[C@H]2OCCCC[C@H](C)Oc3ccc(NC(=O)NC4CCCCC4)cc3C(=O)N([C@@H](C)CO)C[C@@H]2C)cc1 | inactive | inactive
COc1ccc(NC(=O)Nc2ccc3c(c2)C(=O)N([C@H](C)CO)C[C@H](C)[C@@H](CN(C)S(=O)(=O)c2ccccc2)OCCCC[C@@H](C)O3)cc1 | inactive | inactive
C[C@H]1CN([C@@H](C)CO)C(=O)c2cccc(NC(=O)CCCCCC(=O)Nc3ccccc3N)c2O[C@H]1CN(C)CC1CCCCC1 | inactive | inactive
C[C@@H]1CN([C@H](C)CO)C(=O)Cc2cc(NC(=O)c3ccncc3)ccc2O[C@@H]1CN(C)Cc1ccc2c(c1)OCO2 | inactive | inactive
C[C@@H]1CN([C@@H](C)CO)S(=O)(=O)c2ccc(C#Cc3ccc(F)cc3)cc2O[C@@H]1CN(C)S(=O)(=O)c1ccc(F)cc1 | inactive | inactive
Cc1cc(F)ccc1S(=O)(=O)N1[C@@H]2CC[C@@H](C2)[C@H]1c1nc2cccc(OCc3ccc(F)cc3)c2[nH]1 | inactive | inactive
COc1ccc(NC(=O)O[C@H]2[C@H](OC(=O)Nc3ccccc3-c3ccccc3)[C@H](OC(=O)Nc3ccccc3-c3ccccc3)[C@@H](OC)O[C@@H]2COC(=O)NCCCCCC(=O)NO)cc1 | inactive | inactive
C[C@H](CO)N1C[C@H](C)[C@@H](CN(C)S(=O)(=O)c2ccc(F)cc2)Oc2ccc(NC(=O)CCCN(C)C)cc2CC1=O | inactive | inactive
C[C@@H]1CN([C@@H](C)CO)C(=O)c2cc(NC(=O)CCC(F)(F)F)ccc2O[C@@H](C)CCCCO[C@H]1CN(C)Cc1ccc2c(c1)OCO2 | inactive | inactive
C[C@@H]1CCCCO[C@@H](CN(C)Cc2ccc(C(=O)O)cc2)[C@H](C)CN([C@H](C)CO)C(=O)c2cc(NC(=O)Nc3ccccc3)ccc2O1 | inactive | inactive
Cc1ccc(S(=O)(=O)Nc2ccc3c(c2)C(=O)N([C@@H](C)CO)C[C@H](C)[C@H](CN(C)C(=O)CCC(F)(F)F)OCCCC[C@H](C)O3)cc1 | inactive | inactive
O=C(CCCCCNC(=O)OCc1ccc(CO[C@@H]2C[C@H](C3CCCCC3)C=C(C(=O)N3CCN(Cc4ccccc4)CC3)O2)cc1)NO | inactive | inactive
C[C@@H]1CN([C@H](C)CO)C(=O)Cc2cc(NC(=O)C3CC3)ccc2O[C@H]1CN(C)C(=O)Nc1ccc2c(c1)OCO2 | inactive | inactive
C[C@@H]1CN([C@H](C)CO)C(=O)c2cc(NC(=O)NC3CCCCC3)ccc2O[C@@H](C)CCCCO[C@@H]1CN(C)C(=O)c1ccccc1 | inactive | inactive
O=C(N[C@H]1C=C[C@@H](CC(=O)N2CCOCC2)O[C@@H]1CO)c1ccccn1 | inactive | inactive
COc1cccc(NC(=O)N[C@H]2CC[C@H](CC(=O)N3CCN(C)CC3)O[C@H]2CO)c1 | inactive | inactive
C[C@@H]1CCCCO[C@@H](CN(C)S(=O)(=O)c2cccs2)[C@H](C)CN([C@@H](C)CO)C(=O)c2cc(NC(=O)c3ccccc3)ccc2O1 | inactive | inactive
